From patent US20240024337A1, “INTERACTION OF SARS-COV-2 PROTEINS WITH MOLECULAR AND […] […] HOST CELLS AND FORMULATIONS TO TREAT COVID-19” (AKSEERA PHARMA CORP., priority 2020, published 2024)
Read-outs that look alike come from different tables or passages of the source.

Columns and labels:
[1] = test system: HEK293 cells transfected with control plasmid (pCMV) or plasmids expressing ORF8, ORF10 or M protein; assay: Apoptosis assay: early (pSIVA) and late (propidium iodide) apoptosis index, Kinetic Apoptosis Kit; conditions: for early apoptosis index (pSIVA) / late apoptosis index (PI) / Early Apoptosis Index / Late Apoptosis Index / early apoptosis (pSIVA) / late apoptosis (PI): 24 h; for early apoptosis, dose-dependent effects / late apoptosis, dose-dependent effects: dose response 0-2 μM; for early apoptosis (pSIVA) / late apoptosis (PI): concentration not given
[2] = test system: HEK293 cells transfected with control plasmid (pCMV) or plasmids expressing ORF8, ORF10 or M protein; assay type: cell-based, human
[3] = test system: HEK293 (human embryonic kidney) cells transfected with empty control vector (pCMV-3Tag-3a) or vectors expressing the viral Orf8, Orf10 or M proteins; assay: Cell proliferation study by BrdU incorporation (colorimetric ELISA); conditions: 24 h, not normalized to cell number
[4] = cells expressing M protein, 1 μM, comparator as stated in the block
[5] = cells expressing ORF8, ORF10 or M-protein, 1 μM, vs control (pCMV) cells treated with the same cannabinoid
[6] = cells expressing ORF8, 1 μM, comparator as stated in the block
[7] = cells expressing ORF10, 1 μM, comparator as stated in the block
[8] = control plasmid cells, 1 μM, vs vehicle
[9] = cells expressing ORF8, ORF10 and M protein
[10] = cells expressing ORF8, ORF10 and M protein, listed as CBD
[11] = control plasmid (pCMV), listed as CBD
[12] = cells expressing ORF8, 2 μM, numbers vs vehicle-treated cells
[13] = cells expressing ORF10, 2 μM, numbers vs vehicle-treated cells
[14] = control plasmid cells, 2 μM, vs vehicle
[15] = cells expressing M protein, 2 μM, numbers vs vehicle-treated cells

Row | Structure (SMILES) | early apoptosis index (pSIVA) [1, 4] | late apoptosis index (PI) [1, 4] | Early Apoptosis Index [1, 5] | early apoptosis index (pSIVA) [1, 6] | early apoptosis index (pSIVA) [1, 7] | late apoptosis index (PI) [1, 7] | early apoptosis index (pSIVA) [1, 8] | late apoptosis index (PI) [1, 8] | early apoptosis, dose-dependent effects [1, 9] | late apoptosis, dose-dependent effects [1, 9] | expression of OAS1 ([2]; 1 μM, 24 h) | expression of OASL ([2]; 1 μM, 24 h) | gene expression of Type I INF (interferon-alpha, interferon-beta) ([2]; 1 μM, 24 h) | late apoptosis index (PI) [1, 6] | late apoptosis index (PI) [1, 12] | early apoptosis index (pSIVA) [1, 13] | late apoptosis index (PI) [1, 13] | early apoptosis index (pSIVA) [1, 14] | late apoptosis index (PI) [1, 14] | other results
1 | C=C(C)[C@@H]1CCC(C)=C[C@H]1c1c(O)cc(CCCCC)c(C(=O)O)c1O [CBDA, Cannabidiolic acid] | significant increases | significant increases | significantly greater levels of early or late apoptosis | significant increases | significant increases | significant increase | do not show any significant increase | do not show any significant increase |  |  |  |  |  |  |  |  |  |  |  | Late Apoptosis Index ([1]; cells expressing ORF10 or M-protein, 1 μM, vs control cells treated with the same cannabinoid): significantly greater levels of early or late apoptosis
2 | C=C(C)[C@@H]1CCC(C)=C[C@H]1c1c(O)cc(CCCCC)cc1O [Cannabidiol, 2-[(1R,6R)-3-Methyl-6-(1-methylethenyl)-2-cyclohexen-1-yl]-5-pentyl-1,3-benzenediol] |  |  |  |  |  |  |  |  | significant increases | significant increases |  |  |  |  |  |  |  |  |  | expression of IFIT ([2]; 1 μM, 48 h): enhanced; IFIT and Mx gene expression ([2]; 2 μM, 14 h): not significantly altered; expression of INFλ1 ([2]; 2 μM, 14 h): 3 fold; expression of OAS2 (FIGS. 14A-14C) ([2]; 2 μM, 14 h): more enhanced production; expression of OAS3 ([2]; 2 μM, 14 h): more enhanced production; expression of OASL ([2]; 2 μM, 14 h): more enhanced production; gene expression of Type I INFs (INFα and INFβ) ([2]; 2 μM, 14 h): not significantly altered; induction of INFλ1 ([2]; 2 μM, 14 h): further augmented; BrdU incorporation ([3]; control plasmid (pCMV-3Tag-3a) cells, 1 μM cannabinoid): does not reduce cell proliferation; ability to enhance early or late apoptosis in the presence of viral proteins, comparison of the cannabinoids tested ([1]; HEK293 cells transfected with viral proteins): most effective; early apoptosis, dose-dependent effects [1, 10]: dose-dependent effect; late apoptosis, dose-dependent effects [1, 10]: dose-dependent effect; early apoptosis (pSIVA) ([1]; cells expressing ORF8, FIG. 9A): significant increases; late apoptosis (PI) ([1]; cells expressing ORF8, FIG. 9B): significant increases; early apoptosis, dose-dependent effects [1, 11]: not observed; late apoptosis, dose-dependent effects [1, 11]: not observed; early apoptosis (pSIVA) ([1]; control plasmid, FIGS. 9A/9C/9E): do not show any significant increase; late apoptosis (PI) ([1]; control plasmid, FIGS. 9B/9D/9F): do not show any significant increase
3 | CCCCCc1cc(O)c(C/C=C(\C)CCC=C(C)C)c(O)c1 [Cannabigerol] | significant increases | significant increases |  | significant increases | significant increases | significant increases |  |  | significant increases | significant increases | enhanced | more enhanced production | did not differ significantly | significant increase | significant increases | significant increases | significant increase | significant increase | significant increase | expression of OAS3 ([2]; 1 μM, 24 h): augments; Early Apoptosis Index ([1]; cells expressing ORF8, ORF10 or M-protein, 1 μM, vs vehicle only, listed as CBG): augments apoptosis above levels resulting just from viral proteins but not above control levels; Late Apoptosis Index ([1]; cells expressing ORF8, ORF10 or M-protein, 1 μM, vs vehicle, listed as CBG): augments apoptosis above levels resulting just from viral proteins but not above control levels; early apoptosis index (pSIVA) ([1]; control plasmid cells, 1 μM, vs vehicle, listed as Cannabigerol (CBG)): present, by 1.85-fold
4 | CCCCCc1cc(O)c2c(c1)OC(C)(C)c1ccc(C)cc1-2 [cannabinol, Cannabinol] | significant increases | significant increases |  | significant increases | significant increases | significant increases | significant increase | significant increase | significant increases | significant increases | not significantly enhanced | more enhanced production | did not differ significantly | significant increases | significant increases | significant increases | significant increases | significant increase | significant increase | expression of Interferon lambda 1 ([2]; 1 μM, 24 h): significantly augmented; expression of OAS2 ([2]; 1 μM, 24 h): enhanced; Type II Interferon gene expression: significant augmentation of interferon-gamma expression ([2]; 24 hours): 24 hours does not; Early Apoptosis Index, fold increase in control cells (viral proteins not present) ([1]; 1 μM CBN, control cells, significantly increased): 1.82-fold.; Late apoptosis compared with control cells levels in cells expressing M-protein ([1]; 2 μM CBN (text 2 mM), M-protein): CBN augmented; early apoptosis index (pSIVA) [1, 15]: significant increases; late apoptosis index (PI) [1, 15]: significant increases; Late Apoptosis Index ([1]; cells expressing ORF8, ORF10 or M-protein, 1 μM, vs vehicle): augments apoptosis above levels resulting just from viral proteins; Early Apoptosis Index ([1]; cells expressing ORF8, ORF10 or M-protein, 1 μM, vs vehicle only): augments apoptosis above levels resulting just from viral proteins; Late Apoptosis Index ([1]; cells expressing ORF8, ORF10 or M-protein, 2 μM, vs vehicle): this augmentation is significant; early apoptosis index (pSIVA) [1, 12]: significant increases; early apoptosis, dose-dependent effects ([1]; control plasmid (pCMV)): some significant increases; late apoptosis, dose-dependent effects ([1]; control plasmid (pCMV)): some significant increases
5 | CCCc1cc(O)c2c(c1)OC(C)(C)[C@@H]1CC=C(C)C[C@@H]21 [d8-THCV, delta 8-tetrahydrocannabivarin] | significant increases | significant increase | significantly greater levels of early apoptosis | significant increase | significant increases | do not have significant increases | do not show any significant increase |  |  |  |  |  |  | significant increase |  |  |  |  |  | mean BrdU incorporation lower than in cells untreated with cannabinoids ([3]; cells expressing Orf10, 1 μM): less reduction; Late Apoptosis Index ([1]; cells expressing ORF8 or M-protein, 1 μM, vs vehicle only): significantly augmented; Early Apoptosis Index ([1]; cells expressing ORF10 or M-protein, 1 μM, vs same cells with vehicle): augmented
